Measurements: publication PMC4336329 (PLoS ONE, 2015)
The campaign covered roughly 310,000 compounds. About 2,200 (0.71%) showed an effect of 50% or more. Effects have a minus sign here. Some of the results follow.

target: human ether-à-go-go-related gene (hERG) potassium channel (human, UniProt Q12809); test: primary screen, population patch clamp on CHO cells stably expressing hERG
Sequence (Q12809 whole entry, looked up): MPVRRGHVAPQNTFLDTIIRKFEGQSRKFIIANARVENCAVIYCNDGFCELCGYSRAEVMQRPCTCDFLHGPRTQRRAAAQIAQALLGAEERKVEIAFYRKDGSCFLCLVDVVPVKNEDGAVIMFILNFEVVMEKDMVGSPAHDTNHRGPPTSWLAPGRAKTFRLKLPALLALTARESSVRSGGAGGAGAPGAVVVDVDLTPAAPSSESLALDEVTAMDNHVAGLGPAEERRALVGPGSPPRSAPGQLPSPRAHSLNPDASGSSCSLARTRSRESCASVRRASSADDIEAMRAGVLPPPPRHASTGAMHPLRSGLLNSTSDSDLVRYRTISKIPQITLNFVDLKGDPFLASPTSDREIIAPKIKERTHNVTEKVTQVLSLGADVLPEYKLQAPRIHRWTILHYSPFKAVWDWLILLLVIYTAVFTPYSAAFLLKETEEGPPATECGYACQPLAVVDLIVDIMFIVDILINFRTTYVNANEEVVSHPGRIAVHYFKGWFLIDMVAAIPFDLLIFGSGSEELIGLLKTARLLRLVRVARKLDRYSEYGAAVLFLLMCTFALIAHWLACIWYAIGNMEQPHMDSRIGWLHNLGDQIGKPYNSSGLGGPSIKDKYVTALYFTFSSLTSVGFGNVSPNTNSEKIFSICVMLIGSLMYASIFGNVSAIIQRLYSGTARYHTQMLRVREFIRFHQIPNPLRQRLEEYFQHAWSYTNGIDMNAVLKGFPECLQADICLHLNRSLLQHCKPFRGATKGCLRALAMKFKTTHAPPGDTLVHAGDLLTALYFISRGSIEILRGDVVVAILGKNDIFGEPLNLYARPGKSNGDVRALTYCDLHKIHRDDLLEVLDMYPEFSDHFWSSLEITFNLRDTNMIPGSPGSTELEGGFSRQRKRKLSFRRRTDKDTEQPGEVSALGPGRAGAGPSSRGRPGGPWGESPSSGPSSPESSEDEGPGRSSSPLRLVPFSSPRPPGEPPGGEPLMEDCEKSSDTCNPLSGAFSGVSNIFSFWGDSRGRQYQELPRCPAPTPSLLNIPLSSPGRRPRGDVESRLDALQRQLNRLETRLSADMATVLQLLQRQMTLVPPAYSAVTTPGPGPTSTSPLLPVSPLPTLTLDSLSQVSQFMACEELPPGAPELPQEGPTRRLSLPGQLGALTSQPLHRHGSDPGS

SMILES	hERG current change (%, negative = inhibition) at 1uM
O=c1c2ccccc2n(CC(O)CN2CCCCC2)c2ccccc12 (stereo not shown)	-4.43%
Cn1cc(C(=O)N/N=C/c2ccc3c(c2)OCO3)c2ccccc21	12.4%
C=CCNc1nc(NCCN2CCOCC2)nc(N2CCOCC2)n1	18.1%
CCOC(=O)c1ccc(N2C(=O)CC(N3CCN(C(=O)c4ccccc4)CC3)C2=O)cc1 (stereo not shown)	1.21%
O=C(NCC(Cl)c1ccc2ccccc2c1)c1c(F)cccc1F (stereo not shown)	18.8%
O=C(COC(=O)c1ccc(N2CCCC2=O)cc1)Nc1ccccc1	17.8%
CNC(=S)NNC(=O)COc1cccc(C)c1C	16.7%
COc1ccccc1N(CC(=O)Nc1cccnc1)S(=O)(=O)c1ccccc1	1.18%
O=C(O)CCC(=O)c1c[nH]c2ccccc12	-9.58%
C/C(=N\NC(=O)c1ccc(Cl)cc1)c1cccc(NC(=O)C(C)C)c1	6.39%
CCN(CC)CCn1c(OC)cc(=O)[nH]c1=O	19.4%
O=C(NCc1cccc(Cl)c1)c1ccc(S(=O)(=O)Nc2cccc(C(F)(F)F)c2)cc1	15.4%
Cc1ccn(CCC(=O)Nc2ccc(-c3ccno3)cc2)n1	5.53%
COc1ccc([N+](=O)[O-])cc1NC(=S)NC(NC(=O)C(c1ccccc1)c1ccccc1)C(Cl)(Cl)Cl (stereo not shown)	5.06%
O=C(NCC1(c2ccccc2)CCCC1)c1ccco1	3.89%
CCOc1ccc(NS(=O)(=O)c2ccc(C(=O)N(C)CC(=O)Nc3ccc(OC)cc3)cc2)cc1	4.46%
Cc1c(OC(C(=O)O)c2ccccc2)ccc2c(-c3ccccc3)cc(=O)oc12 (stereo not shown)	6.4%
O=C(c1cccs1)N1CCC(c2nc3ccccc3s2)CC1	-9.48%
CC(=O)NC(Cc1c[nH]c2ccccc12)C(=O)O (stereo not shown)	0.653%
Br.Cc1ccc(Cn2c(=N)n(CC(=O)c3ccccc3)c3ccccc32)cc1	-16.4%
COc1cc(C(C)=O)ccc1OCC(=O)N1CCc2ccccc2C1	9.79%
COc1cccc(OC)c1CC1SC(=O)NC1=O (stereo not shown)	7.86%

SMILES	hERG current change (%, negative = inhibition) at 1uM
COc1ccc2c(C)cc(SCC(=O)N3CCOCC3)nc2c1	-6.4%
CCN(CC(=O)Nc1cc(Cl)ccc1-n1cncn1)Cc1nc2ccccc2c(=O)[nH]1	-7.81%
COc1ccccc1N(CC(=O)N(c1ccccc1)C(C)C)S(=O)(=O)c1cccs1	5.66%
Cc1ccc(Sc2c(C)nn(C(=O)c3cccc(S(=O)(=O)N4CCOCC4)c3)c2C)cc1	-2.68%
O=C(COC(=O)c1ccccc1SCC(=O)N1CCCC1)Nc1ccccc1OC(F)F	10.7%
Br.Brc1ccc(-c2csc(NNC3=NCCCCC3)n2)cc1	9.68%
CC(CCc1ccccc1)NC(=O)CNC(=O)COc1ccccc1 (stereo not shown)	8.29%
O=C(Nc1c(F)cc(F)cc1Br)c1cc2nc(C(F)F)cc(C(F)F)n2n1	6.33%
O=C(NCCc1ccc(O)cc1)c1ccc(Cl)cc1	4.07%
Cc1nn(-c2ccccc2)c2[nH]c(=O)c(CNCC3CCCO3)cc12 (stereo not shown)	12.1%
Clc1ccc(N2CCN(Cc3ccco3)CC2)cc1	4.97%
CCn1ccnc1C(O)(c1ccccc1)c1ccccc1	6.77%
CCN1CCN(C(=O)COc2ccc(S(=O)(=O)N3CCOCC3)cc2Cl)CC1	11.6%
C/C(=N\OCC(=O)OCC(=O)NC(=O)c1ccc(OC(F)F)cc1)c1ccc2c(c1)OCO2	-12.5%
CC(C(=O)N1CCOCC1)N1C(=O)C2C3CC(C(Br)C3Br)C2C1=O (stereo not shown)	6.77%
Cc1[nH]c2ccccc2c1C(c1ccccn1)N1CCC(C(N)=O)CC1 (stereo not shown)	2.5%
CCc1ccc(OCCCC(=O)Nc2ccc(N3CCOCC3)cc2)cc1	15.3%
Cn1nc([N+](=O)[O-])nc1Sc1nnnn1-c1cccc(C(=O)O)c1	15.1%
O=C(Nc1ccc(F)cc1)N(Cc1ccco1)Cc1cc2cc3c(cc2[nH]c1=O)OCO3	13.8%
CCCn1c(N)c(Sc2ccccc2[N+](=O)[O-])c(=O)n(CCC)c1=O	4.27%
Cn1c(C(=O)N2CCCC(C(=O)NCCCc3ccccc3)C2)cc2sccc21 (stereo not shown)	-23.5%
CCOc1cc(S(=O)(=O)NCCc2cccc(C)c2)c(OCC)cc1-n1cnnn1	4.82%

SMILES	hERG current change (%, negative = inhibition) at 1uM
O=C(CCC1CCCCC1=O)c1ccccc1 (stereo not shown)	10.8%
Clc1ccc(CNc2ccccn2)cc1	3.11%
Cc1cc(/C=N/n2cnnc2)c(C)n1-c1cc(Cl)ccc1Cl	-1.87%
COc1ccccc1CNC(=O)COc1ccc([N+](=O)[O-])cc1	5.93%
CCCCC#Cc1cncc(C(=O)N/N=C/c2ccccc2)c1	12.6%
O=C(NCCCN1CCOCC1)C1Nc2ccc(OC(F)(F)F)cc2C2C=CCC12 (stereo not shown)	-0.058%
CCCn1c(CC)nc([N+](=O)[O-])c1S(=O)(=O)c1ccccc1	-1.6%
CC1=C(NCCc2ccccc2)CCC1=O	8.22%
O=C(NCc1cccnc1)Nc1cccc(Cl)c1Cl	10.7%
O=S(=O)(NNc1nccc(C(F)(F)F)n1)c1cccc(Cl)c1Cl	15.8%
Cc1cccc(OCc2nnc(SCC(=O)OC3CCCCC3)o2)c1	16.5%
O=C1CC(=C(c2ccccc2)c2ccccc2)C(=O)N1CCCCN1CCN(c2ccccc2)CC1	4.62%
CC12CCC(C(=O)Nc3cccc4ccccc34)(C1Br)C2(C)C (stereo not shown)	20.6%
Nn1c(SCC(=O)Nc2ccc(F)c(F)c2)nnc1C1CCCCC1	11.4%
CCN(CC)CC.COc1ccc(OC)c(-n2c(=S)[nH]c3c(sc(=S)n3-c3ccccc3)c2=O)c1	13.8%
CN(CC(=O)N1CCN(c2ccccn2)CC1)S(=O)(=O)c1ccc2ccccc2c1	4.44%
Cc1[nH]n2c(=O)c3c(nc2c1-c1cccc2ccccc12)CCC3	16.5%
CC1CCCCN1C(=O)c1cc(Cl)ccc1[N+](=O)[O-] (stereo not shown)	3.75%
CC(=O)c1c(C)[nH]c(C(=O)OCC(=O)N2CCN(S(=O)(=O)c3ccc(C)cc3)CC2)c1C	16%
C=CCn1c(SCC(=O)O)nnc1-c1ccc(C(C)(C)C)cc1	3.34%
CCN1CCCC1CNC(=O)Cn1cnc2sc(C)c(S(=O)(=O)N3CCC(C)CC3)c2c1=O (stereo not shown)	4.33%
COc1ccc(NS(=O)(=O)c2ccc3oc(SC(C)C(N)=O)nc3c2)cc1 (stereo not shown)	17.3%

SMILES	hERG current change (%, negative = inhibition) at 1uM
CCCCc1c(C)nc(N2CCCC2)[nH]c1=O	11.6%
CSc1cccc(NC(=O)CSc2nnc(C)s2)c1	2.62%
CN1CCCC(OC(=O)c2ccc(Cl)cc2)C1.Cl (stereo not shown)	10.4%
O=C(CSc1nc2ccccc2c(=O)n1-c1ccccc1F)Nc1ccc2c(c1)CCC2	14.6%
CCCCCC(O)(c1ccccc1)C(CN1CCOCC1)c1ccccc1.Cl (stereo not shown)	7.36%
Cc1ccc(CC(=O)N2CCN(C(=O)c3ccco3)CC2)cc1	9.61%
O=C(CN(C(=O)Cn1nnc(-c2ccc(F)cc2)n1)c1ccc(F)cc1)NC1CCCC1	11.9%
O=C(CCS(=O)(=O)c1ccccc1)N1CCN(c2ccccc2F)CC1	15.8%
O=C(NC1CCCC1)c1cc(-c2ccc(Cl)cc2Cl)on1	7.05%
O=C(Nc1ccccc1N1CCOCC1)C1CCN(S(=O)(=O)c2ccc(Cl)cc2)CC1	6.63%
CC(=O)Nc1cccc(Oc2ccc3c(c2)C(=O)NC3=O)c1	14.2%
Cc1ccc(CNC(=O)C2CCCN2S(=O)(=O)c2ccc3c(c2)C(C)(C)C(=O)N3C)cc1 (stereo not shown)	6.8%
Cc1ccc(-c2csc(NC(CO)c3nc4ccccc4n3CCOCCO)n2)cc1 (stereo not shown)	-4.22%
COc1cccc(N2CCN(S(=O)(=O)c3ccc4c(c3)NC(=O)C(C)C(=O)N4)CC2)c1 (stereo not shown)	4%
Cn1c(=O)cc(OCCCC(=O)NCc2cccnc2)c2ccccc21	6.27%
Cc1ccc(-n2ncc3c(N4CCN(c5ccccc5)CC4)ncnc32)c(C)c1	-5.64%
CCC1(C)Cc2c(sc3nc(SC)nc(NCCN(C)C)c23)CO1 (stereo not shown)	-13.3%
CCCCCCCOC(=O)c1nc(Cl)c(Cl)c(N)c1Cl	0.504%
Cc1cc(C)n(CCC(=O)N=Nc2c(O)[nH]c3ccccc23)n1	4.21%
N#CCCN1CCCN(CCC#N)CCN(CCC#N)CCCN(CCC#N)CC1	16.3%
O=C(CN1c2cccc3cccc(c23)S1(=O)=O)N1CCN(c2ccc(F)cc2)CC1	3.26%
Cc1ccc(S(=O)(=O)n2[nH]c(=O)cc2NC(=O)c2cccs2)cc1	5.74%
